# Results published in article PMC4336329 (PLoS ONE, 2015).
# About 14,000 (4.5%) of roughly 310,000 compounds showed an effect of 50% or more. Effects have a minus sign here. Some of the results follow.
# Molecular target: human ether-à-go-go-related gene (hERG) potassium channel (human, UniProt Q12809)
# Experiment: primary screen, population patch clamp on CHO cells stably expressing hERG
# 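Further: peak tail current of the secondary pulse compared with the same well before compound.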
# Sequence of human ether-à-go-go-related gene (hERG) potassium channel (Q12809 whole entry, looked up): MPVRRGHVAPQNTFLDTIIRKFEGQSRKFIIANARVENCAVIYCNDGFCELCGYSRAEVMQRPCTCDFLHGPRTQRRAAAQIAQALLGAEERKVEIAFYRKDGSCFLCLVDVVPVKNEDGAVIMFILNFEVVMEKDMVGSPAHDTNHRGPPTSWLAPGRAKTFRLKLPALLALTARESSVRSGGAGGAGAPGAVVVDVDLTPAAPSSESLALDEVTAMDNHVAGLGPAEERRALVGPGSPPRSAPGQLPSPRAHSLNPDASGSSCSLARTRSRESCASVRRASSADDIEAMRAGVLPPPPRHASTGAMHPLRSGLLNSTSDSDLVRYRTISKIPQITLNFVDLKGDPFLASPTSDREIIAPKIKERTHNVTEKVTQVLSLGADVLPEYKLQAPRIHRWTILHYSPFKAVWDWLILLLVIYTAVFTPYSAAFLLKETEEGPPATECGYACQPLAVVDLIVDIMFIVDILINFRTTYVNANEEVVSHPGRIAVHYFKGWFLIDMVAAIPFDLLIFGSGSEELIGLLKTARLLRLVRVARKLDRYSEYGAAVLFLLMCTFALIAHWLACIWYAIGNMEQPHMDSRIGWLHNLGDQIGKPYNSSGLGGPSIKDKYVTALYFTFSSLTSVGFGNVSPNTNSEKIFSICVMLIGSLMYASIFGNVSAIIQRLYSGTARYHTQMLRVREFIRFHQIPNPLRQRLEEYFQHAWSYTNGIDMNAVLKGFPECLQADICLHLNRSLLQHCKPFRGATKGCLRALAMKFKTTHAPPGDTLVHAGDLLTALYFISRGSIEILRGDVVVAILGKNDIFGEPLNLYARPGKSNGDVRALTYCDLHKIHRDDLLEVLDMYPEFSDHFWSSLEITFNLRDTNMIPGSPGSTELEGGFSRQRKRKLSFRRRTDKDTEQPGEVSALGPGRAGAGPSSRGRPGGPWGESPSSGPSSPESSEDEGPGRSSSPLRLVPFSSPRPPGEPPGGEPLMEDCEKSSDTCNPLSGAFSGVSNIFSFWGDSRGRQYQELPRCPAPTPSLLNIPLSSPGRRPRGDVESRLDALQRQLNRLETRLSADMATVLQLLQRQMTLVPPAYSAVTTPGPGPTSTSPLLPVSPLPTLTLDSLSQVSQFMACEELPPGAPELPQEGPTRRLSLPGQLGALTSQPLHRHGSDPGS
row,Compound,"hERG current change (%, negative = inhibition) at 10uM"
1,Cc1ccc(OC(=O)CCC(=O)Nc2ccc(S(=O)(=O)Nc3cc(C)on3)cc2)cc1,0.482%
2,Cc1cc(C)c(NC(=O)CS(=O)CC(=O)Nc2ccc(-n3cnnn3)c(C)c2)c(C)c1 (centres unmarked),24.1%
3,CCCCOCC1CN(c2ccccc2)C(=O)CS1 (centres unmarked),5.11%
4,CCn1c(COc2cccc(C)c2C)nnc1SCC(=O)Nc1cc(C)on1,19.1%
5,N#Cc1c(N2CCCCC2)nc(N)c2c(N)nc3c(c12)CC(c1ccccc1)O3 (centres unmarked),0.369%
6,Cc1cc(=O)[nH]c(N2CCN(C(=O)c3ccco3)CC2)n1,14%
7,CC1N(C)c2cc(NC(=O)c3ccco3)c(P(=O)(Nc3ccc([N+](=O)[O-])cc3)N3CCOCC3)cc2C1(C)C (centres unmarked),-56%
8,O=C(O)c1cc(NS(=O)(=O)c2ccc(NC3CCCCC3)c([N+](=O)[O-])c2)cc(C(=O)O)c1,15.7%
9,CCOc1ccc(N(CC(=O)NC(C)(C)C)S(=O)(=O)c2c(C)noc2C)cc1,-15.5%
10,COc1ccc(CCNC(=S)NC(=O)c2cc(OC)c(OC)c(OC)c2)cc1OC,7.56%
11,CCCn1c(CN2CCN(C(=O)c3ccco3)CC2)nc2c1c(=O)n(C)c(=O)n2C,-10.3%
12,CCN(CC)C(=O)C1CCN(Cc2ccc(Br)cc2)CC1.O=C(O)C(=O)O,-51.4%
13,Cl.c1ccc(Nc2c3c(nc4ccccc24)CCC3)cc1,-76.2%
14,Cc1c(Cl)cccc1NC(=O)NN1CCN(C)CC1,-0.937%
15,Cc1ccc(Nc2nc3ccccc3o2)cc1F,21%
16,CC1=C(C(=O)OCC2CCCO2)C(c2ccc(C)cc2)C2=C(CCCC2=O)N1 (centres unmarked),14.4%
17,Cc1ccc(C)c(NC(=O)CSc2nc(=O)n(CCN3CCOCC3)c3c2CCCC3)c1,-24.2%
18,COc1ccc(NC(=O)C(=S)N2CCCC2)cc1,11.1%
19,CCCn1nnnc1NC(=O)c1cccs1,25.5%
20,COc1ccccc1N1CCN(C(=O)c2cc(=O)c3cc(C)ccc3o2)CC1,-50.7%
21,c1cncc(C2CCCCN2Cc2ccc3c(c2)OCO3)c1 (centres unmarked),0.758%
22,Cc1cc(C)cc(-n2cnc3cc(C(=O)O)ccc32)c1,2.82%
23,OC(CN1CCOCC1)c1ccc(F)cc1 (centres unmarked),12.6%

row,Compound,"hERG current change (%, negative = inhibition) at 10uM"
1,O=C(NCC(c1ccco1)N1CCCC1)c1cccc(NS(=O)(=O)c2ccccc2)c1 (centres unmarked),-5.9%
2,Cc1csc(-c2cnn(-c3ccccc3)c2NC(=O)c2ccccc2)n1,10.3%
3,Oc1ccc(-c2nc3ccccc3s2)cc1,1.14%
4,O=C(NC1CCCC1)c1cccc(Cl)c1,29.8%
5,O=[N+]([O-])c1ccc(OCCCn2cncn2)cc1,-22.6%
6,O=S(=O)(Cc1ccc(Cl)cc1)c1ccccc1-c1nnc(-c2ccccc2)o1,11.2%
7,CCN1CCc2c(sc(NC(=O)COc3ccccc3)c2C(=O)OC)C1.Cl,-62.6%
8,COc1cccc(/C(C#N)=C/c2c(-c3ccc(Cl)cc3)nc3c(C)cccn23)c1,10.1%
9,COC(=O)C1=C(C)NC(C)=C(C(=O)OC)C1C(=O)OCC(=O)N1c2ccccc2CC1C (centres unmarked),-0.858%
10,CCCc1cc(C(=O)Nc2cccnc2)no1,5.01%
11,O=C(O)C1CCC(CNCc2ccccc2Cl)CC1 (centres unmarked),-3.19%
12,COc1ccc(NC(=O)Cn2nnc(-c3ccccc3NC(=O)C3CC3)n2)cc1,3.42%
13,C/C(=N\NC(=O)c1c[nH]c2ccccc12)c1ccc(C)s1,-7.68%
14,Cc1cccc(-n2nnc(C(=O)NCc3ccccc3Cl)c2N)c1,10.1%
15,Cc1ccc(CC(=O)NC(C)CCc2ccccc2)cc1 (centres unmarked),2.65%
16,CSc1ncccc1C(=O)NNC(=O)c1ccc(NS(=O)(=O)c2cccs2)cc1,9.7%
17,O=C(NC1CC1)c1cccc(NC(=O)c2cn3ccccc3n2)c1,-18.6%
18,CCc1ccc(CCC(=O)Nc2ccc(Cl)cc2)o1,9.4%
19,O=C(Cc1cccs1)NNC(=O)C12CC3CC(CC(C3)C1)C2,22.5%
20,CSc1cccc(NC(=O)C(=O)NCc2ccccc2)c1,-28.8%
21,O=C(CNCc1ccc(Cl)cc1)NCc1ccco1.O=C(O)C(=O)O,-17.3%
22,COc1ccc(NCC(=O)N/N=C(\C)c2cc3ccccc3o2)cc1,-28.7%
23,CC1=NC(=O)C(N=Nc2ccccc2)N1c1ccccc1 (centres unmarked),-8.37%

row,Compound,"hERG current change (%, negative = inhibition) at 10uM"
1,CCOC(=O)N1CCN(C(=O)CN(c2ccccc2)S(C)(=O)=O)CC1,22.2%
2,CCOC(=O)C1(CC2CCCCO2)CCN(C(=O)Nc2cccc(SC)c2)CC1 (centres unmarked),-9.02%
3,Cc1ccc(N2C(=O)C3C(C2=O)N2CCCN2C3c2ccccc2)cc1C (centres unmarked),4.15%
4,CCOC(=O)c1nn(-c2ccccc2C)c2nc(-c3ccc(Cl)cc3)c(C#N)c(=O)n12,12%
5,CC1(C)CC(=O)C2=C(C1)OC(N)=C(C#N)C2c1ccccc1 (centres unmarked),-14.4%
6,O=C(CSc1ncn[nH]1)Nc1ccccc1Sc1ccc(Cl)cc1,-28.2%
7,O=c1c2ccc([N+](=O)[O-])cc2ncn1CCOc1ccccc1,-8.16%
8,COc1ccc(OCC(=O)Nc2nc3ccccc3[nH]2)cc1,1.01%
9,CC(=Nc1ccc2c(c1)CCC2)c1c(O)n(C2CCCCC2)c(=O)[nH]c1=O,8.58%
10,O=C1NC(=O)N(CCc2ccc(F)cc2)C(=O)/C1=C/C=C/c1ccccc1,-0.806%
11,COc1ccc(CNC(=O)c2ccc(N3CCC4(CC3)CC(c3ccc(Cl)cc3)=NO4)c(NC(=O)c3ccccc3)c2)cc1,8.81%
12,N/C(=N\O)c1ccc([N+](=O)[O-])s1,11%
13,COc1ccc(NC(=O)c2cccs2)cc1OC,-9.25%
14,Clc1ccc(Sc2oc(/C=N/n3cnnc3)cc2Br)cc1,10.5%
15,O=[N+]([O-])c1cccc(CSc2cccc[n+]2[O-])c1,12.4%
16,CC1Cc2ccccc2N1S(=O)(=O)c1cccc(C(=O)NC2CC2)c1 (centres unmarked),-40%
17,O=C(Nc1ccccc1)N(C1=NCCCCS1)c1ccccc1,8.39%
18,Cc1ccc(NC(=O)N/C=C/c2ccco2)cc1,-2.2%
19,COc1ccc(S(=O)(=O)N(C)CC(=O)NCCC2=CCCCC2)cc1OC,-17.1%
20,COc1ccc(CCNC(=O)c2nc(-c3cccs3)no2)cc1OC,-12.6%
21,O=C(NC1CCS(=O)(=O)C1)c1ccc(Br)o1 (centres unmarked),14.4%
22,CC(=O)N1CCN(c2ccc([N+](=O)[O-])cc2C=C2C(=O)NC(=O)NC2=O)CC1,-56.6%
23,O=C(CSc1nnc(-c2ccc3c(c2)OCO3)n1-c1ccccc1)c1ccccc1,-6.49%

row,Compound,"hERG current change (%, negative = inhibition) at 10uM"
1,CCOC(=O)C1C(c2cccc(Cl)c2Cl)NC(=O)NC1(O)C(F)(F)F (centres unmarked),4.8%
2,O=C1C=C(c2ccc(-c3ccccc3)cc2)C[C@@H](c2ccc(F)cc2)C1,6.67%
3,Cc1ccc(NCc2nnc(SCC(=O)N3CCCc4ccccc43)o2)c(C)c1,12.7%
4,COc1ccc(C(=O)COC(=O)COc2cccc3c2OC(C)(C)C3)c(OC)c1,13.5%
5,O=C(Nc1ccccn1)c1ccc(CN(c2ccccc2)S(=O)(=O)c2ccccc2)cc1,9.86%
6,O=C1CSC(=S)N1/N=C/c1c(F)cccc1F,25.3%
7,Cc1cc(C)nc(NC(=O)CSc2nc3ccccc3o2)n1,-14.4%
8,CCOC(=O)c1ccccc1NC(=O)C1CC(=O)N(C2CCCCC2)C1 (centres unmarked),-22.7%
9,CCC(C)NC(=O)CCc1c(C)nc2c(c(C)nn2-c2ccccc2)c1C (centres unmarked),-1.82%
10,CCC(=O)c1ccc(OCC(=O)OCC(=O)NC2CCCCCC2)cc1,18.6%
11,CCOC(=O)CN1NC2(CCC(C(C)(C)C)CC2)NC1=S (centres unmarked),14.7%
12,COc1ccc2cc(S(=O)(=O)N3CCOCC3)ccc2c1,-19.6%
13,COc1cc(NC(=S)NC(=O)c2cc(C)cc(C)c2)ccc1NC(=O)c1cccs1,22.5%
14,CCCC12CN3CCN(CC(C3)/C1=N\NC(=O)c1ccc(C(C)(C)C)cc1)C2,-14.4%
15,O=C(NCc1cccs1)c1cccc(Nc2nc3ccc(Br)cc3[nH]2)c1,11.2%
16,O=C(O)c1ccccc1SCc1csc(-c2ccccc2)n1,5.76%
17,O=C(N/N=C/c1ccccc1F)C(=O)N1CCCCCC1,4.7%
18,O=C1c2ccccc2C(=O)N1CCc1csc(-c2ccccc2)n1,-23.7%
19,O=c1[nH]cnc2c1C(c1ccccc1[N+](=O)[O-])c1c(nc[nH]c1=O)O2,6.83%
20,Cc1cc(C)n2c(SCC(=O)Nc3ccccc3)nnc2n1,-9.2%
